# Source: PubChem BioAssay AID485294 (National Center for Advancing Translational Sciences (NCATS), 2010)
# The campaign covered roughly 370,000 compounds. About 150 (0.041%) were called active. Inconclusive results, whose numbers are uncertain, are shown with a selection of clear calls. Calls follow the shape of the dose curve; as a rule, active = well fitted inhibition curve with a large enough effect; inconclusive = small, poorly fitted or top-dose-only effect; inactive = flat fitted curve, though single readings scatter. Potencies of inconclusive entries are left out as doubtful fits.
# Molecular target: Beta-lactamase (Escherichia coli (strain K12)) (UniProt P00811)
# Test: qHTS Inhibitors of AmpC Beta-Lactamase (assay with detergent); also: nearly all actives have a fitted effect of over 25% in size;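 as to activity change, negative = inhibition: 0% = no-compound wells and -100% = no-enzyme wells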
# Details: AmpC hydrolysis of nitrocefin, absorbance 480 nm, 0.01% Triton; activity change, negative = inhibition: at 114 µM (top of the series)
# Outline: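 AmpC (5.3 nM in the dispensed reagent) in 20 mM phosphate pH 7.0 with 0.01% (detergent screen) or 0.0001% Triton X-100 was preincubated with compounds for 15 min at room temperature. Nitrocefin was then added from an 800 uM solution, and hydrolysis was followed at 480 nm.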
# Potency is read from the fitted curve at half-maximal effect; tags tell the direction and shape of the fitted curve.
# UniProt P00811, sequence (P00811 whole entry, looked up): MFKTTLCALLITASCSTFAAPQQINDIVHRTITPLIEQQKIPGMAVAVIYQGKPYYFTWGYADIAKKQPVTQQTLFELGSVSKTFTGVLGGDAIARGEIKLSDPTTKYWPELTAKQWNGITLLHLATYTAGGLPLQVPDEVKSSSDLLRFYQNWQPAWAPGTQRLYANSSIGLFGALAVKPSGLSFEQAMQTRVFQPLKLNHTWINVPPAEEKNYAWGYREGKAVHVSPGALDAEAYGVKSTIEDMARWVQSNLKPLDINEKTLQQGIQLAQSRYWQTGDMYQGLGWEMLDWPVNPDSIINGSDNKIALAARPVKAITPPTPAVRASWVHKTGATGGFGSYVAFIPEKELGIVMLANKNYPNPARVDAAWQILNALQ
Structure (SMILES),Potency,"activity change, negative = inhibition"
CC1=NN(c2ccc(N)cc2)C(=O)C1,"inconclusive [inhibitor, full curve, poor fit]",
CCCC(=O)NC(=S)Nc1cccc2c(O)cccc12,"inconclusive [inhibitor, full curve, poor fit]",
COc1cccc(C(=O)N2CCc3cc(OC)c(OC)cc3C2COc2ccc3c(C)cc(=O)oc3c2)c1 (stereo not given),,inactive: 8.03%
CCn1cc(S(=O)(=O)c2cc(C)cc(C)c2)c(=O)c2cc(F)c(N3CCN(c4ccccc4)CC3)cc21,,inactive: -4.29%
COc1cccc(OC)c1C(=O)Nc1cccc(C(C)=O)c1,,inactive: -0.0487%
CCCCn1c(C)cc(C)c(S(=O)(=O)c2ccccc2C)c1=O,"inconclusive [inhibitor, single point]",
O=C(Nc1ccc(F)cc1)c1cccnn1,"inconclusive [inhibitor, partial curve, poor fit]",
Cc1c(NC(=O)c2cc(C3CC3)on2)c(=O)n(-c2ccccc2)n1C,"inconclusive [inhibitor, full curve]",
CCCCNC(=O)Cn1nc(N2CCN(c3ccccc3OC)CC2)ccc1=O,,inactive: 0.564%
C=CCc1c(C)nc(-c2ccccc2)nc1N/N=C(\C)c1ccccc1,"inconclusive [inhibitor, full curve, poor fit]",
CC(=O)N1CCc2c(sc3c2c(=O)n(-c2cc(Cl)ccc2C)c(=O)n3C)C1,,inactive: -7.83%
O=C(CN1C(=O)NC2(CCc3ccccc32)C1=O)c1ccc2c(c1)OCCO2 (stereo not given),"inconclusive [inhibitor, full curve]",
Cc1nn2c(-c3cccc(NC(=O)c4ccco4)c3)nnc2c2ccccc12,"inconclusive [inhibitor, partial curve]",
Cc1cc(C)c(C(=O)N2CCCC(N3CCN(c4ccc(F)cc4)CC3)C2)o1 (stereo not given),,inactive: -2.52%
COc1ccc(/C=N/Nc2ccccn2)cc1OC,,inactive: 2.96%
Cc1sc2ncn(CC(=O)N3CCN(c4cccc(Cl)c4)CC3)c(=O)c2c1S(=O)(=O)N1CCC(C)CC1,,inactive: 7.34%
NNC(=O)/C(=N/Nc1ccccc1)S(=O)(=O)c1ccc(Cl)cc1,"inconclusive [inhibitor, full curve, poor fit]",
CCc1ncc(C(O)c2cccc3ccccc23)n1C (stereo not given),"inconclusive [inhibitor, partial curve]",
COc1ccc(Br)c(C(=O)NNC(=O)c2ccc(NS(=O)(=O)c3cccs3)cc2)c1,,inactive: -1.59%
O=C(C1=C[C@H](C2CCCCC2)C[C@H](OCc2ccc(CO)cc2)O1)N1CCN(Cc2ccc3c(c2)OCO3)CC1,,inactive: 8.03%
